# Results taken from PMC4336329 (PLoS ONE, 2015).
# Screen size: about 310,000 compounds; about 14,000 (4.5%) showed an effect of 50% or more. Effects have a minus sign here. Some of the results follow.
# Target: human ether-à-go-go-related gene (hERG) potassium channel (human, UniProt Q12809)
# Assay: primary screen, population patch clamp on CHO cells stably expressing hERG
# 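Also: peak tail current of the secondary pulse compared with the same well before compound.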
# human ether-à-go-go-related gene (hERG) potassium channel, sequence (Q12809 whole entry, looked up): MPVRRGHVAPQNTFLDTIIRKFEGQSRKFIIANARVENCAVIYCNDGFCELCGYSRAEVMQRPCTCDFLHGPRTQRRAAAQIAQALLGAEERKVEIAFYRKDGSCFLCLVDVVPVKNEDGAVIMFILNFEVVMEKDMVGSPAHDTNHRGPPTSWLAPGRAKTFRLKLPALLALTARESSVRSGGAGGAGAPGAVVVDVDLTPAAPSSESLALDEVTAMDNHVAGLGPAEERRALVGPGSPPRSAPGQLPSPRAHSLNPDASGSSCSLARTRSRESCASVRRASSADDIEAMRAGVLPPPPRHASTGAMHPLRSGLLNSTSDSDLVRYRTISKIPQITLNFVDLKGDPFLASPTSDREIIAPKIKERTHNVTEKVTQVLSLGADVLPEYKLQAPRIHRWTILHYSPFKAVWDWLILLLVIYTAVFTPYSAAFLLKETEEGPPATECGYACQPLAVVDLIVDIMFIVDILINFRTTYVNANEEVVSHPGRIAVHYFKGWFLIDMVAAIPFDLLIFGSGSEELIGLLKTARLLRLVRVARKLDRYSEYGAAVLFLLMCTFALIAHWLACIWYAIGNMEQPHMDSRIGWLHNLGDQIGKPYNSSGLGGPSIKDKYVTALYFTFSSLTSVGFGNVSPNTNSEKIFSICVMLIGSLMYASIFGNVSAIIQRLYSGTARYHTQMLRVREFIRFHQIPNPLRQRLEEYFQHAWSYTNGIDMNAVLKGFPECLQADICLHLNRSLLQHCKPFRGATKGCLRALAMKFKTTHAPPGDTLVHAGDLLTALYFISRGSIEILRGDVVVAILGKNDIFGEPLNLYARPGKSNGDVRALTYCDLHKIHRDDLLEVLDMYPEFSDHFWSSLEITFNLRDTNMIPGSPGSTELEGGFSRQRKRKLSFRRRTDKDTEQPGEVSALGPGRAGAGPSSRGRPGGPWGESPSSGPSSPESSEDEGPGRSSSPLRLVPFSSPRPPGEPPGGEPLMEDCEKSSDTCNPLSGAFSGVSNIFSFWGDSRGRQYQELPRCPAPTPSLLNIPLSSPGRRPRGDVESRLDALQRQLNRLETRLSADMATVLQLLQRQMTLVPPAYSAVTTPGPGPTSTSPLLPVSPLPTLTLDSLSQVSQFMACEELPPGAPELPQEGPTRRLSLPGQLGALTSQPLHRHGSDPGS
row,SMILES,"hERG current change (%, negative = inhibition) at 10uM [%]"
1,N#C/C(=C\c1ccccc1C(F)(F)F)C(=O)Nc1ccccc1F,-3.1
2,O=C(c1cccc(S(=O)(=O)N2CCCC2)c1)N1CCN(c2ccccc2)CC1,-13
3,Cc1ccc(N2CC(C(=O)Nc3cccc(C(=O)NC4CC4)c3)CC2=O)cc1 (centres unmarked),-4.71
4,CNCCC(Oc1ccccc1OC)c1ccccc1.Cl (centres unmarked),-53.5
5,CCCC(=O)Nc1ccc(C(=O)NCCCn2ccnc2)cc1,-4.08
6,Cc1ccc(OCC(=O)NNC(=O)Nc2ccc(Cl)cc2)c(Br)c1,3.59
7,Cn1c(NC(=O)C[n+]2cc(-c3ccccc3)n3c2CCC3)cc(=O)n(C)c1=O.[Cl-],-3.14
8,CCn1c(=NC(=O)c2ccco2)sc2cccc(F)c21,9
9,Cc1cc(OCC(=O)Nc2ccc(Br)cc2)cc2c1C(=O)CC(C)(C)O2,2.04
10,Cc1ccc2nc(Cc3ccc(N)cc3)[nH]c2c1.Cl,12
11,Cc1ccn(C(=O)c2ccc(NC(=O)C3CC3)cc2)n1,11.7
12,CCc1cccc(NC(=O)Cn2cc(C=O)c3ccccc32)c1,4.05
13,COc1cc2c(C(=O)NCCCN3CC(C)CC(C)C3)cn(CC(C)C)c(=O)c2cc1OC (centres unmarked),-10.2
14,COc1ccccc1CNC(=O)[C@H](C)NC(=O)C1CCN(C(=O)[C@H](CCSC)NC(=O)OC(C)(C)C)CC1,3.05
15,O=C1C(C2=C(O)c3ccccc3C2=O)=Nc2ccccc21,-7.06
16,CCC(C)(C)n1nnnc1C(c1ccc2ncccc2c1)N1CCN(Cc2ccc3c(c2)OCO3)CC1 (centres unmarked),-69.7
17,Cc1ccc(-c2nnc(NC(=O)c3c(F)cccc3Cl)s2)cc1,15.5
18,CC(=O)N1N=C(c2cccnc2)OC1c1ccccc1Cl (centres unmarked),-19.6
19,COc1ccc(CNC(=O)C(C)N=C2NS(=O)(=O)c3ccccc32)cc1OC (centres unmarked),16.7
20,O=C(NCCO)c1cc2ccccc2cc1O,10.8
21,Cc1nc(SCC(=O)Nc2ccccc2Cl)oc1C,14.2
22,O=C(Nc1ccccc1C(=O)NCCc1ccccc1)c1cnccn1,-24.7
23,CC1CCCCN1C(=O)Cn1c(=O)oc2ccccc21 (centres unmarked),-13.8

row,SMILES,"hERG current change (%, negative = inhibition) at 10uM [%]"
1,CN(CC(=O)Nc1ccc(Cl)c(C(F)(F)F)c1)C(=O)c1cc(=O)[nH]c2ccccc12,15.9
2,N=c1c(C(=O)NCc2ccccc2)cc2c(=O)n3ccccc3nc2n1Cc1ccco1,-76.4
3,COc1ccc(NC(=O)CN(C)C(=O)c2ccc3[nH]c4c(c3c2)CC(C)CC4)cc1 (centres unmarked),7.28
4,CC1(C)Cc2nc3sc(C(=O)O)c(N)c3cc2CS1,29.4
5,COc1ccc(CC(=O)Nc2cccc(C(=O)Nc3cccc(C)c3)c2)cc1,-1.93
6,CCOc1ccc(OCC)c(NC(=O)CN(C)S(=O)(=O)c2cccc3nsnc23)c1,-15.3
7,Cc1ccc(CS(=O)(=O)Cc2ccc(C(=O)NCc3cccs3)o2)cc1,-20.2
8,COc1ccc(OC(=O)c2cnc3n(c2=O)CCS3)cc1,8.8
9,Brc1ccccc1C1Nc2cccc3cccc(c23)N1,-8.96
10,COc1ccc(C(CC(=O)NCCCN2CCOCC2)NS(=O)(=O)c2ccc(C)cc2)cc1 (centres unmarked),-13.2
11,Cc1c(CN2CCN(CC(C)C)C(CCO)C2)[nH]c2ccc(Cl)cc12 (centres unmarked),-34.4
12,CSCCC(NS(=O)(=O)c1cccs1)C(=O)NCc1ccc(C)cc1 (centres unmarked),-6.78
13,CCCCCn1nc(C)c(/C=N/NC(=O)c2ccoc2C)c1C,-43.8
14,Cc1ccnc(NC2CCCCC2)c1,20.4
15,CC(=O)NC1CSCC1OC(C)=O (centres unmarked),9.45
16,COc1ccc(CCNC(=O)CSc2ccc(-c3ccccc3)nn2)cc1,-13.1
17,Cc1ccc(CN2CC(C(=O)N3CC=C(c4ccccc4)CC3)CC2=O)cc1 (centres unmarked),-32.6
18,Cc1ccc(NC(=O)CSc2nnc(C)n2C2CC2)cc1S(=O)(=O)N1CCOCC1,-11.5
19,Cc1cccc2cn[nH]c12,7.12
20,O=C(COC(=O)c1cccc(S(=O)(=O)N2CCCCC2)c1)NC1CCCCC1,10
21,CC(=O)Nc1ccc(Nc2ccccc2)cc1,7.4
22,Cc1ccc(C)c(CNS(=O)(=O)c2c(C(=O)N3CCCC3)c(C)n(C)c2C)c1,1.45
23,CCc1ccc(/C=N/NC(=O)C(=O)NCCCN2CCOCC2)cc1,-23.6

row,SMILES,"hERG current change (%, negative = inhibition) at 10uM [%]"
1,COc1ccc(CCn2ccc(O)c(Cc3c(F)cccc3Cl)c2=O)cc1OC,9.71
2,COc1ccc(Cl)cc1-n1c(N)c(C(N)=O)sc1=S,7.72
3,COc1ccc(-c2csc(NC(=O)c3ccccc3F)c2C(=O)O)cc1,24.2
4,Cc1nc2ccccn2c1/C(O)=C1\C(=O)C(=O)N(CCN(C)C)C1c1cccnc1 (centres unmarked),2.34
5,COc1cccc(C(=O)OCCCN(C)C)c1.Cl,-1.4
6,CC/C(=N\O)c1ccc(O)c(OC)c1,8.07
7,COc1ccc(-c2nnc(SCC(=O)c3ccc(O)cc3O)o2)cc1,7.26
8,COc1ccc(/C=C/C(=O)OCC(=O)Nc2ccc(OC)c(S(=O)(=O)N3CCCCC3)c2)cc1,2.08
9,CC(C)(C)C(=O)Nc1cccc(OC(F)(F)C(F)Cl)c1 (centres unmarked),-17.8
10,C/C(N)=C(/C#N)C(=O)COC(=O)c1cccc(C)c1O,22
11,Oc1cc2c(cc1CN1CCN(c3ccccc3)CC1)CCC2,-5.78
12,CC(C)(C)c1ccc(C2(C)NC(=O)N(CC(=O)NCc3cccs3)C2=O)cc1 (centres unmarked),9.46
13,Cn1c(=O)oc2cc(S(=O)(=O)NCCC(=O)NCc3ccccc3Cl)ccc21,8.46
14,CC1(C)CC(=O)C=C(c2cccnc2)C1,1.73
15,COC(=O)CSc1nc(-c2ccccc2)nc2ccccc12,14.3
16,C=CCn1c(-c2ccc(OC)c(OC)c2)n[nH]c1=S,18.7
17,COc1cc(C2C(C#N)=C(N)OC3=C2C(=O)CC(C)(C)C3)c([N+](=O)[O-])cc1OC (centres unmarked),1.19
18,CCCNC(=O)c1ccc(N2CCC3(CC2)CC(c2cccc(Br)c2)=NO3)c(NC(=O)c2ccco2)c1,-7.9
19,CC(C)(C)N(NC(=O)c1ccccc1)C(=O)c1cccc(C(=O)N(NC(=O)c2ccccc2)C(C)(C)C)c1,12.9
20,CCOc1ccc(C(=O)CCC(=O)N2CCN(c3ncccn3)CC2)cc1,-19.8
21,CCOC(=O)C1=C(c2ccccc2)Nc2ncnn2C1c1ccc(OC)c(OC)c1OC (centres unmarked),-5.55
22,CN(CCC1CCOCC1)Cc1cn[nH]c1-c1ccc(-c2ccccc2)cc1,-62.6
23,CCC(C)(C)NC(=O)COc1ccc(OCc2ccccc2)cc1,8.44

row,SMILES,"hERG current change (%, negative = inhibition) at 10uM [%]"
1,Cn1c(=O)c(C=Nc2ccccc2)c(O)c2ccccc21,-3.84
2,O=C(CSCc1c(F)cccc1Cl)NCC1CCCO1 (centres unmarked),-6.44
3,CN(C)C(=O)c1ccc(NC(=O)c2ccccc2Sc2ccccc2C#N)cc1,1.57
4,COc1cc(-c2nc(S(=O)(=O)c3ccc(Cl)cc3)c(N3CCOCC3)o2)cc(OC)c1OC,-3.17
5,COc1ccc(C(CC(=O)Nc2nccs2)C(C)C)cc1 (centres unmarked),-4.5
6,CC(C)CC(=O)Nc1cc(NC(=O)CC(C)C)cc(C(=O)NC(C)(C)C)c1,9.08
7,CSc1nc(C)cc(NC(N)=O)n1,7.02
8,CCC(=O)N1c2ccc(S(=O)(=O)CCC(=O)N3CCN(c4ccccc4)CC3)cc2CC1C (centres unmarked),4.07
9,C=CCSc1nc(N)c(NC(=O)c2ccco2)c(=O)[nH]1,7.05
10,CC1CCCC(C)N1C(=O)COC(=O)C1CCN(S(=O)(=O)c2ccc3c(c2)OCCO3)CC1 (centres unmarked),-8.5
11,CCOC(=O)c1sc(NC(=O)CC(C)c2ccccc2)nc1C (centres unmarked),10.3
12,CCOC(=O)c1cn(Cc2cccc(C)c2)nn1,-11.4
13,COc1ccccc1Nc1nnc(SCC(=O)Nc2nc(-c3ccc(F)cc3)cs2)s1,37.4
14,COc1ccccc1-c1nn2c(C(F)(F)F)nnc2s1,14.8
15,COCOc1cc(O)c2c(=O)c(OCOC)c(-c3ccc(OCOC)c(OCOC)c3)oc2c1,-25.3
16,COc1ccc(OC)c(NC(=O)CCCNC(=O)c2ccc(Cl)cc2)c1,-9.27
17,COC(=O)c1sc(NC(=O)CSc2nncs2)c(C(=O)OC)c1C,10.7
18,Cc1noc(C)c1CSc1nc2[nH]ncc2c(=O)n1-c1ccccc1,-20.8
19,COc1ccc(OCCNc2c([N+](=O)[O-])c(=O)oc3ccccc23)cc1,-12.2
20,O=C1CS(=O)(=O)N(Cc2cccc(F)c2)c2ccc(Br)cc21,-5.02
